Results on two molecules are retold here after PMC7218409, “The protein architecture of the endocytic coat analyzed by FRET microscopy” (Molecular Systems Biology, 2020).

Common to all, as to test: FRET or BRET; acceptor photobleaching in live yeast; inner cytoplasmic (nucleus and vacuole free) areas; GFP/mCherry or mTurquoise2/mNeonGreen pairs
Common to all, as to details: partners not purified
On the technique in general: BRET reads energy transfer from a luciferase to a nearby fluorophore.

The target of test [1] is T1, Sla1 with a C-terminal fluorescent tag (GFP/mCherry screen) (S. cerevisiae, UniProt P32790 1-1244).
T1 construct: Sla1, S. cerevisiae; gene tagged at its endogenous locus, no truncation told; Linker RTLQVD between protein and C-terminal tag; also called Sla1-mCherry; C-terminus of Sla1; source: S. cerevisiae, expressed from its endogenous locus, in live cells; not shown: GFP or mCherry, C-terminal, kept
T1 sequence (looked up): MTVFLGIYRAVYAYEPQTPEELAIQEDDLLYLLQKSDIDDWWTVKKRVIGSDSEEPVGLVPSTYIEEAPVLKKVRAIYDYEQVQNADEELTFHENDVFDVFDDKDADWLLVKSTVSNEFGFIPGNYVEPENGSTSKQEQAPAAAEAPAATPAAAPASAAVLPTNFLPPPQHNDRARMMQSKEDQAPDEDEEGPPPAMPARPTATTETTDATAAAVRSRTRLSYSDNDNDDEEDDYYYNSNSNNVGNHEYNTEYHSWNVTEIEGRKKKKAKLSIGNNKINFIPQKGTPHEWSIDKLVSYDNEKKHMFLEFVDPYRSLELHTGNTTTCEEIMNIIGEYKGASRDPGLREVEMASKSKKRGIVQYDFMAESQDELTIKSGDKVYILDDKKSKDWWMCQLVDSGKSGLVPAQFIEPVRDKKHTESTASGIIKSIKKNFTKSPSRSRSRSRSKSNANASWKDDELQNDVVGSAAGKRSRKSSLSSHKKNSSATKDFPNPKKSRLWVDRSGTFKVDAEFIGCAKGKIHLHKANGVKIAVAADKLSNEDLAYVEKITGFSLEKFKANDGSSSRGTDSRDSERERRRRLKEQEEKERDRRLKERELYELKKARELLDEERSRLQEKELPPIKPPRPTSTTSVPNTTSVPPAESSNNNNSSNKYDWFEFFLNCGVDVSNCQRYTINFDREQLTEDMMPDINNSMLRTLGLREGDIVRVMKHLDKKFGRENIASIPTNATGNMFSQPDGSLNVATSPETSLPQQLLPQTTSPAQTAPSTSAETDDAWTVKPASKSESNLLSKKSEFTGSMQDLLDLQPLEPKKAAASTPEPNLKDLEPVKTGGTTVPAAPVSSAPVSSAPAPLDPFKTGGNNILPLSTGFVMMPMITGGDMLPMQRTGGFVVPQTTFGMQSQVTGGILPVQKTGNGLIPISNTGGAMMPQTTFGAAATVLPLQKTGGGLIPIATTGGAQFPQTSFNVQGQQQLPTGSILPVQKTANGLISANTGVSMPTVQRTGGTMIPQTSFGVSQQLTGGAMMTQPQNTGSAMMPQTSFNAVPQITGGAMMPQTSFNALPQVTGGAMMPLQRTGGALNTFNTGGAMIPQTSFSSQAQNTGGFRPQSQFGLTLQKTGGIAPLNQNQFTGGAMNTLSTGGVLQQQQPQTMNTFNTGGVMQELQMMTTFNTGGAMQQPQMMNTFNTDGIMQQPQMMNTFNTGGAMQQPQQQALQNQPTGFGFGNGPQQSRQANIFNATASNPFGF

The next test deals with T2, Sla1-mNeonGreen (S. cerevisiae, UniProt P32790 1-1244).
T2 construct: Sla1, S. cerevisiae; gene tagged at its endogenous locus, no truncation told; Linker RTLQVD between protein and C-terminal tag; not shown: mNeonGreen, C-terminal, kept
T2 sequence (looked up): T1 sequence (looked up)

A further test concerns the target T3, mNeonGreen-Sla1 (S. cerevisiae, UniProt P32790 1-1244).
T3 construct: Sla1, S. cerevisiae; gene tagged at its endogenous locus, no truncation told; Linker GS(GGGGS)3ATENNS between N-terminal tag and protein; source: S. cerevisiae, expressed from its endogenous locus, in live cells; not shown: mNeonGreen, N-terminal, kept
T3 sequence (looked up): T1 sequence (looked up)

B1: Las17-GFP (natural protein, S. cerevisiae)
chain: MGLLNSSDKEIIKRALPKASNKIIDVTVARLYIAYPDKNEWQYTGLSGALALVDDLVGNTFFLKLVDINGHRGVIWDQELYVNFEYYQDRTFFHTFEMEECFAGLLFVDINEASHFLKRVQKRERYANRKTLLNKNAVALTKKVREEQKSQVVHGPRGESLIDNQRKRYNYEDVDTIPTTKHKAPPPPPPTAETFDSDQTSSFSDINSTTASAPTTPAPALPPASPEVRKEETHPKHSLPPLPNQFAPLPDPPQHNSPPQNNAPSQPQSNPFPFPIPEIPSTQSATNPFPFPVPQQQFN[about 120 residues not spelt out]NMSSPPPPPVTTFNTLTPQMTAATGQPAVPLPQNTQAPSQATNVPVAPPPPPASLGQSQIPQSAPSAPIPPTLPSTTSAAPPPPPAFLTQQPQSGGAPAPPPPPQMPATSTSGGGSFAETTGDAGRDALLASIRGAGGIGALRKVDKSQLDKPSVLLQEARGESASPPAAAGNGGTPGGPPASLADALAAALNKRKTKVGAHDDMDNGDDW
notes: Las17 (WASP/N-WASP homolog), S. cerevisiae; gene tagged at its endogenous locus, no truncation told; Linker RTLQVD between protein and C-terminal tag; source: S. cerevisiae, expressed from its endogenous locus, in live cells; not shown: GFP, C-terminal, kept
B1 had an FRET efficiency in test [1] of 1.5%.

B2: mTurquoise2-Las17 (natural protein)
chain: not shown
notes: Las17 (WASP/N-WASP homolog), S. cerevisiae; gene tagged at its endogenous locus, no truncation told; Linker GS(GGGGS)3ATENNS between N-terminal tag and protein; source: S. cerevisiae, expressed from its endogenous locus, in live cells; not shown: mTurquoise2, N-terminal, kept
For the molecule B2, the FRET efficiency with Sla1-mNeonGreen stood at 8.5%; with mNeonGreen-Sla1, 9.8%.
